# Data taken from publication PMC12136788.
# The other results are listed elsewhere or left out.
# T1: UNK ZnF1-3 (human, UniProt Q9C0B0 31-174)
# T1 sequence: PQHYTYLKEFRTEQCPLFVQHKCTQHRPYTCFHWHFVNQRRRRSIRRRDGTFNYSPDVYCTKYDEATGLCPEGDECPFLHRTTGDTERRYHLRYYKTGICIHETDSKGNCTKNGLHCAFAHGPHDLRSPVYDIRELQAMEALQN
# B1: chr1:168318718:168318719:+_ENSMUSG00000026563_ENSMUST00000027846|mus_mus|motif|central (ssRNA)
# RNA: GGGAGUUCUACAGUCCGACGAUCCUGGGGCUCCUUUGCCACGAACUGCUGAGCUCCAGAGAGGGGGUUCUGAGGCUGGAACCGGUGAUCAAAUUUUUGACGAACAGAAGAAAGCUUUUUCUUGCCCUUGGGUUUUCCAGGCUUCAACAGAGGAUUGAGCAUCA
# B2: chr10:5827197:5827198:-_ENSG00000057608_ENST00000380191|perfect_dup|motif|central (ssRNA)
# RNA: GGGAGUUCUACAGUCCGACGAUCAUAAAGGUAUGGGCUUUUGCCAUAUCUUGCCAAAGAUUCACUGUAAAGUUUAAUUCGGUUAAUGGUUUCAUAACACGGUUGAUCUAAGUAAUCAUCAGUUCUGUAAAGUGCAAGAGCAUGCAACAGAGGAUUGAGCAUCA
# B3: chr2:60072280:60072281:+_ENSMUSG00000026977_ENSMUST00000102748|mus_mus|motif|central (ssRNA)
# RNA: GGGAGUUCUACAGUCCGACGAUCUCUUCGUGAGAAAAAAGUAGAUGACAUGCUAGAAGCUAUCCGUGACAGCAAUCUCCGGGUUGUACGCCUACCUUCAUUGUCAGAAGAUUCUCGAUAUGGUCUCUGAGAUGAACCCCUUUCCAACAGAGGAUUGAGCAUCA
# B4: 38144846_38144966_2325_CDS_ENSMUSG00000063455_ENSMUST00000169256|mouse|control|control (ssRNA)
# RNA: GGGAGUUCUACAGUCCGACGAUCAGGUGUCAGAGUCGAGAAUGGAGAUGACUCGGUUAAAAUGGGUGUCAAAUGGAAAACAGUUGUUGGCAGUGAUGUGAGGUGAGUCCCAGCUGCGUAGAUGCCAAGAGAGGGCUCAGAGCUCAACAGAGGAUUGAGCAUCA
# B5: chr6:112015657:112015658:-_ENSG00000010810_ENST00000368667|hu_mus|FALSE|FALSE (ssRNA)
# RNA: GGGAGUUCUACAGUCCGACGAUCAGCAAUCUUGCAAAUUAGUCCAUUCCCCACUAGAAUGUUUGCUGAUCGCAGAUCUCUGUGGAUAUAAUUCAUGCGCUCGAUGUAAGCCAUUCCUGCAGCAACCUGUGCCGCCAUGUCCACCAACAGAGGAUUGAGCAUCA
# B6: chr13:104551264:104551265:-_ENSMUSG00000032621_ENSMUST00000074616|mus_mus|motif|central (ssRNA)
# RNA: GGGAGUUCUACAGUCCGACGAUCUCCAAGUGUUGUAAUAUUUGGGUCCAGCGCUGCUGCUGGGAUAGCUCCCAAACUGCGGAGUGAAACACCAAGACUACUCACUGCCGUCAGAGGACUGGAGGUUGGGAUGGGAAGCAACCCCAACAGAGGAUUGAGCAUCA
# B7: chr4:148551591:148551592:-_ENSMUSG00000063077_ENSMUST00000060537|mus_hu|mus_mus_mus_hu_False|58_108 (ssRNA)
# RNA: GGGAGUUCUACAGUCCGACGAUCACCUUACAAAAUUAAAUAUCCCUGUAAAUUAGACAAUAAGCAGCAGGCAACAAAGUCUAUGCUUUGGAAUAUGUGCCAGGAAAAGUCAUCUUGUUUUUAGAUCUCAAGAGACAGUUCACACAACAGAGGAUUGAGCAUCA
# B8: chr7:141445308:141445309:+_ENSG00000106028_ENST00000265304|hu_hu|hu_hu_hu_mus_False|8_18 (ssRNA)
# RNA: GGGAGUUCUACAGUCCGACGAUCUAUGAUUGUUGUUGCUUGCCGCCUCACAUUGUUUUUAUCCAUGUACUCGCCAUAGUCCACUUUCCCUUCCACAAAUAUACGAGCCCCCUUUUUCACAUAUUGAUAUGCCACGUCUCUGAGCAACAGAGGAUUGAGCAUCA
# B9: chr14:78183846:78183847:+_ENSG00000119705_ENST00000557342|hu_hu|hu_hu_hu_mus_False|8_8 (ssRNA)
# RNA: GGGAGUUCUACAGUCCGACGAUCUCUCAGAAAUCUUUCUUCAUCAGAUGUUUGAGCUCCGUGCAAAGCCUUUGCUCUUUGAGCUUGAACGUGGAUCUAUGGGAGGGAAAGCACUGUCAGAAAAGGUUGUAGUGCAUUUAAAGACAACAGAGGAUUGAGCAUCA
# B10: chr13:97419678:97419679:-_ENSMUSG00000021670_ENSMUST00000022176|mus_mus|FALSE|FALSE (ssRNA)
# RNA: GGGAGUUCUACAGUCCGACGAUCAGACACUUAAUUACAACAUAUACAGAUUGAUAGUUUACCAAAAAAUCUAGAGUUCAGCUAAAUAAGUUAAAAUGUCUCUAAAAGAAACUUGGCUUAGAGAAAUGGUCGUUUGUUUUUUGUCAACAGAGGAUUGAGCAUCA
# B11: chr5:37680062:37680063:+_ENSMUSG00000029121_ENSMUST00000031004|mus_hu|mus_mus_mus_hu_False|38_78 (ssRNA)
# RNA: GGGAGUUCUACAGUCCGACGAUCUUUGGGUGUAGCUGGUACCUCGUACACAGGACCAUCGUACAUGCCCCUGGAAACCCCUUGCAAUCCAAAAACCUUGCUUCUGAUUUUGACGCGCUGGUACAGGUGCUCCGGGAACGCCUUCAACAGAGGAUUGAGCAUCA
# B12: chr7:65705844:65705845:+_ENSG00000169902_ENST00000304842|hu_mus|hu_hu_hu_mus_False|1_8 (ssRNA)
# RNA: GGGAGUUCUACAGUCCGACGAUCAAACGGAUCUUUGUUACAUAAAUAAGGUGCCGGCUCCCCAUGUUUAACAAUGACCUCCAGAAGGAAGGCUUGCAUGGCAGAAUCUAGCACUUCAUCUGUGACACCAGCCUCAUCCAGGCGCAACAGAGGAUUGAGCAUCA
# B13: chr19:8913615:8913616:-_ENSMUSG00000071658_ENSMUST00000096259|mus_hu|FALSE|FALSE (ssRNA)
# RNA: GGGAGUUCUACAGUCCGACGAUCAGGGUACCAAAACCUUCUGCCUGAAAUGGGUGCCCCACCCAGUAGGGAGUUGCAGCUGAAAGUAUCUGAUGCAGAAGCAGUGACUAUACGAAAGGAGGCCCCUGGGGAGGGCCAGGCCAGCAACAGAGGAUUGAGCAUCA
# B14: 156274125_156274366_1830_CDS_ENSG00000164114_ENST00000311277|human|control|control (ssRNA)
# RNA: GGGAGUUCUACAGUCCGACGAUCUUUCUUUGCUCUUUCAUAUUCUCUCUCCUUUCUAUUUUUCUCUUUAAGAUAUUCCAUCUUUUUCUCUUUCCAUUUUUCAAAAGCUUGUAGUGCUUCUCCUUUUCUUGCAGCAUUUUCUUCCAACAGAGGAUUGAGCAUCA
# Biological target: T1, UNK ZnF1-3
# Test: nsRBNS (natural sequence RNA bind-n-seq); RBNS binding buffer (assumed for nsRBNS): 25 mM Tris pH 7.5, 150 mM KCl, 3 mM MgCl2, 0.01% Triton X-100, 500 ug/ml BSA, 20 U/ml SUPERase-In, 4 C; UNK is unkempt and MSI1 is Musashi-1; names of the RNAs are library labels; protein concentration not given here; high values mean tight binding
row,Binder,binding signal [enrichment R]
1,B1,1.15
2,B2,0.588
3,B3,0.733
4,B4,1.48
5,B5,1.07
6,B6,1.31
7,B7,1.2
8,B8,0.65
9,B9,1.3
10,B10,1.38
11,B11,0.777
12,B12,0.635
13,B13,1.5
14,B14,0.19
